Hit rate of the full screen: of about 48,000 compounds, about 120 (0.25%) were called active. Roughly 4% stayed inconclusive and do not appear here. Calls follow the shape of the dose curve; as a rule, active = well fitted activation curve with a large enough effect; inconclusive = small, poorly fitted or top-dose-only effect, or another doubt; inactive = no such curve, though single readings can be large or run the other way. Some of the results follow.
assay: Primary qHTS for Identification of Small Molecule Activators of Huntingtin-Antisense Promoter Activity; conditions: HEK293 HTT-AS promoter firefly luciferase reporter (activity 0% = vehicle and -100% = no light), 24 h; series mostly up to 57.5 µM; activity change, positive = activation: at the top concentration; also: nearly all actives have a fitted effect of over 55% in size
How it was run: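 Quantitative HTS used concentration series of up to 57.5 uM final on HEK293 luciferase reporter cells, 24 h at 37 degrees C. Readout was Dual-Glo firefly luminescence.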

Activity change, positive = activation, inactive:
COc1ccc(OC)c(CNC(=O)NCc2noc3ccc(C)cc23)c1 -11.9%
CCN1C(=O)c2ccccc2S(=O)(=O)c2ccc(C(=O)NCc3ccccc3OC)cc21 -21.8%
CC(C)c1ccc(NC(=O)c2cc3c(=O)[nH]c4ccccc4c3n2C)cc1 -9.74%
O=C(CSc1cn(CC(=O)N2CCCCC2)c2ccccc12)NCc1ccccc1Cl -22.6%
Cc1ccc(-n2nc(C)c3c(C(=O)NCCc4ccc(S(N)(=O)=O)cc4)cc(C)nc32)cc1 -16.9%
O=C(CN1C(=O)c2cccnc2Sc2ccccc21)Nc1cc(F)ccc1F -10.2%
CCC1CN(C(=O)N2CCC(C(=O)NCc3cccc(F)c3)CC2)c2cc(C)ccc2O1 (stereo not given) -39.1%
COc1ccccc1NS(=O)(=O)c1cn(C)c(C)n1 -17.5%
COc1ccc(N2CC(NC(=O)COc3cccc(C)c3)CC2=O)cc1OC (stereo not given) -18%
Cc1ccc(C)c(N2CCN(C(=O)Cn3nc(C)c4sc5ccccc5c4c3=O)CC2)c1 -9.36%
COc1ccccc1N(CC(=O)Nc1ccccc1C(F)(F)F)S(=O)(=O)c1ccc(C)cc1 -26.7%
Cc1c(C(C)C)c(=O)n(-c2ccccc2)n1C -5.45%
CCC(O)c1nc2ccccc2n1Cc1cc(C)ccc1C (stereo not given) -14%
Cc1oc2ccc(O)c(CN3CCCCCC3)c2c1C(=O)Nc1cccc(C(F)(F)F)c1 -50.8%
CCOc1ccc(NC(=O)CSc2nc3ccsc3c(=O)n2CCC(C)C)cc1 -6.59%
Cc1ccc(NC(=O)C2CCN(S(=O)(=O)c3ccc4c(c3)CCCC(=O)N4)CC2)cc1N(C)C -33.4%
COc1ccc(OC)c(NC(=O)C2CCN(S(=O)(=O)c3ccc4c(c3)CC(C)N4C(C)=O)CC2)c1 (stereo not given) -26.2%
COc1ccc(OC)c(NC(=O)C(C)n2c(=O)c(-c3ccccc3NC(C)=O)nc3ccccc32)c1 (stereo not given) -27.4%
O=C(CC1Sc2ccccc2NC1=O)Nc1cccc(C(F)(F)F)c1 (stereo not given) -27.2%
COc1ccc(-c2nc(CSCC(=O)NCCC(C)C)c(C)o2)cc1OC -17.1%
CCN(CC)c1ccc(C2C(C(N)=O)=C(C)Nc3nc(SCc4ccccc4Cl)nn32)cc1 (stereo not given) -61%
CCOC(=O)c1ccc(N=C2SC(C(=O)Nc3ccccc3)CC(=O)N2C)cc1 (stereo not given) -25.3%
Cc1ccc(NC(=O)c2ccc(C)c(S(=O)(=O)N3CCCCCC3)c2)cc1 -18.9%
COc1ccc(CNC(=O)C2(c3cccs3)CCOCC2)cc1 -9.87%
O=C(CCCCCCC(=O)Nc1cccnc1)NO -86.9%
CCOC(=O)C1=C(CN2CCN(c3ccc(C)cc3C)CC2)NC(=O)NC1c1ccc(OC)cc1 (stereo not given) -37.1%
Cc1ccccc1-c1nc(CN2CCC(C(=O)NC(C)C)CC2)c(C)o1 -0.788%
CCCCc1nn2c(=O)cc(COC(=O)CNC(=O)COc3ccc(C)cc3)nc2s1 -14.4%
CCOc1ccc(NC(=O)c2c(NCc3cccs3)sc3c2CCC(C)C3)cc1 (stereo not given) -13.1%
CCCCN(C)CCCNC(=O)c1cn(CC)c2ccc(S(=O)(=O)N3CCc4ccccc4C3)cc2c1=O -3.17%
COc1ccccc1CNC(=O)c1cc(S(=O)(=O)N2CCCC(C)C2)cn1C (stereo not given) -23%
Cc1ccc2oc(-c3ccc(NC(=O)c4oc5ccc(Cl)cc5c4C)cc3)nc2c1 2.56%
Cc1ccc(-n2nc(C)c3c(C(F)(F)F)cc(-c4cccnc4)nc32)cc1C -12.1%
Cc1cccc(NC(=O)Cn2c(SCC(=O)NCc3ccccc3)nc3ccccc32)c1C -20.6%
O=C(c1cnn(-c2ccc(F)cc2)c1-n1cccc1)N1CCN(c2ccccc2)CC1 -12.7%
CC(C)OCCCn1c(SCc2ccccc2Cl)nc2c(sc3ccccc32)c1=O 18.6%
CCOc1ccc(NC(=O)CSc2cn(CC(=O)N3CCOCC3)c3ccccc23)cc1 5.71%
CCC1CN(C(=O)N2CCC(C(=O)NCCC3=CCCCC3)CC2)c2ccccc2O1 (stereo not given) 5.38%
CCC(Cc1ccccc1)NC(=O)c1cccc(Nc2nc3ccccc3nc2-n2nc(C)cc2C)c1 (stereo not given) 12.3%
CCC1CCCCN1C(=O)Cn1c(=O)n(-c2ccc(Cl)c(Cl)c2)c(=O)c2c(C)c(C(=O)N(C)C)sc21 (stereo not given) -13.3%
COc1ccc(CCNC(=O)c2cc(=O)[nH]c3ccc(S(=O)(=O)N4CCCCC4)cc23)cc1OC -10.2%
CCOc1ccc(NC(=O)C2CCC(CNS(=O)(=O)c3ccc4c(c3)CCCC(=O)N4)CC2)cc1 (stereo not given) -0.778%
Cc1c(Cl)cccc1Nc1ccccc1C(=O)O -13.9%
CC(=O)Nc1c(C)nn(-c2ccccc2)c1N1CCC(C(=O)NCc2cccc(F)c2)CC1 -2.23%
CCN(c1cc(C)cc(C)c1)S(=O)(=O)c1nnc(NC(=O)c2ccccc2C)s1 -40.6%
Cc1ccc(N(CC(=O)N2CCN(c3cccc(C)c3C)CC2)S(=O)(=O)c2c(C)nn(C)c2C)cc1 -33.5%
CCOC(=O)c1cc2c(=O)n3ccccc3nc2n(C(C)C)c1=NC(=O)c1c(-c2c(F)cccc2Cl)noc1C -37.8%
CCc1cccc(C)c1NC(=O)c1cc(S(=O)(=O)N2CCN(c3ccccc3)CC2)ccc1F -25.2%
COc1ccc(OC)c(CNc2ncnc3onc(C)c23)c1 -29.9%
Cc1cccc(CCNC(=O)CCc2c(C)nc3c(c(C)nn3-c3ccccc3)c2C)c1 -35.2%
COc1ccc2c(c1)CC(C(=O)Nc1cc(OC)c(OC)c(OC)c1)CO2 (stereo not given) -17.3%
CN(C)c1ccc(C(=O)NCc2ccc3c(c2)CCN3C(=O)c2ccc(Cl)cc2)cc1 -14%
COc1ccc(Cl)cc1NC(=O)CCn1nc(C)cc1C -1.8%
CN1C(=O)c2ccccc2Sc2ccc(NC(=O)N3CCN(c4cccc(Cl)c4)CC3)cc21 -59.5%
Clc1ccc(CNc2ncnc3onc(-c4ccc(Cl)cc4)c23)cc1 -25.2%
COc1ccc(C(=O)NCc2ccc3c(c2)CCN3C(=O)c2ccc(Cl)cc2)c(OC)c1 -2.92%
COc1cc(OC)cc(C(=O)Nc2cccc(-c3cn4ccsc4n3)c2)c1 -3.37%
Cc1ccc(NC(=O)CSc2nccn2-c2ccccc2)cc1 21.3%
O=C(COc1ccccc1Cl)Nc1ccc2nc(SCC(=O)N3CCOCC3)sc2c1 -41.8%
O=S(=O)(c1ccc2nc(Nc3ccc(Br)cc3F)ccc2c1)N1CCCCC1 -22%
CCSc1nc2sc3c(c2c(=O)n1-c1ccc(C)c(Cl)c1)CCN(C(C)=O)C3 -24.3%
Cc1ccccc1Cn1cc(S(=O)(=O)c2ccc(F)cc2)c(=O)c2cc3c(cc21)OCO3 -7.58%
Cc1ccc(NC(=O)Cn2c(=O)n(CCCCC(=O)NCCc3ccccc3)c(=O)c3ccccc32)cc1 -10.1%
Cc1cc(=O)n(Cc2ccc(Br)cc2F)c2c1c(C)nn2-c1ccccc1 -0.424%
O=C(CCNS(=O)(=O)c1ccc2c(c1)CCCC(=O)N2)NCc1ccc(Cl)cc1 -15.2%
Cc1cc(Cl)ccc1OCCSc1nnc(-c2cccs2)o1 -12.6%
COc1cc(F)c(C(C)C)cc1-c1ccc(C(F)(F)F)cc1CN1C(=O)O[C@H](c2cc(C(F)(F)F)cc(C(F)(F)F)c2)[C@@H]1C -20.2%
COC(=O)c1ccc2c(c1)N(CC(=O)Nc1ccc(C)cc1Cl)C(=O)c1ccccc1S2 -3.07%
COc1ccc(C)cc1NC(=O)CN(C)S(=O)(=O)c1ccc2[nH]c(=O)oc2c1 -12.6%
CCc1ccc(-c2[nH]nc3nc(-c4cc(OC)ccc4OC)cc(C(=O)O)c23)cc1 -11.3%
COC(=O)c1sccc1S(=O)(=O)N(CC(=O)Nc1cc(F)ccc1F)c1ccc(C)c(C)c1 -7.58%
Cn1nc(C(=O)NCc2ccccc2Cl)c2c1-c1ccccc1SC2 4.91%
CCN(CC)c1nn2c(=O)c(C(=O)NCc3ccccc3Br)cnc2s1 -14.9%
CCOc1ccc(NC(=O)N2CCN(C(=O)c3nsc4ccccc34)CC2)cc1 -14.5%
O=C(NCCc1ccc(Cl)cc1)c1cc2c(s1)-c1ccccc1OC2 -22.4%
Cc1cccc(NC(=O)c2ccc(Cn3nc(N4CCN(c5ccccc5)CC4)ccc3=O)o2)c1C -42.3%
COc1ccc(CCNC(=O)c2ccc3c(c2)CCN3S(=O)(=O)c2ccc(C)cc2)cc1OC -35.5%
COc1ccc(-c2cc(C(F)(F)F)nc(SCC(=O)N(C)Cc3ccccc3)n2)cc1 -36.8%
CC(=O)N1CCc2c(sc(NC(=O)CSc3ccc(F)cc3)c2-c2nc3ccccc3s2)C1 -47.4%
Cc1ccc(Cn2c(CO)cnc2SCC(=O)Nc2cccc(F)c2)cc1 -18%
COc1ccc(-c2noc(-c3ccc(NCCc4ccccc4)c([N+](=O)[O-])c3)n2)cc1 0.466%
O=C(Cn1cc(S(=O)(=O)Cc2ccccc2Cl)c2ccccc21)Nc1ccc(F)cc1F -23.7%
CCOc1ccc(CNC(=O)c2ccc3c(c2)N(Cc2ccccc2)CCS3)cc1 -27.3%
CCOc1ccc(S(=O)(=O)N2CCC(n3c(C)nc4cccnc43)CC2)cc1 -24.5%
COC(=O)c1ccc2c(c1)N(Cc1cc(C)ccc1C)C(=O)c1ccccc1S2(=O)=O -33.7%
O=C(Cn1ncc2c(Cl)cccc21)NCc1cccc(F)c1 -1.02%
CCn1c(C)c(C)c2cc(C(=O)NCCc3cc(OC)ccc3OC)ccc21 -18.5%
Cc1oc2ncn(CC(C)C)c(=O)c2c1C(=O)NCCCN(C)Cc1ccccc1 0.946%
O=C(Nc1cccc(C(F)(F)F)c1)C1CCCN(S(=O)(=O)c2cccc3nonc23)C1 (stereo not given) -17%
Cc1oc2c(C)c3oc(=O)c(CCC(=O)N4CCCCC4)c(C)c3cc2c1C -19.5%
Cc1cc2oc(C(=O)Nc3ccc(S(=O)(=O)N(C)c4ccccc4)cc3)cc(=O)c2cc1C 14.9%
COc1cc(-c2nnc(SCCOc3ccccc3)o2)cc(OC)c1OC -6.34%
CCOC(=O)Cn1c(=O)oc2cc(S(=O)(=O)Nc3ccccc3F)ccc21 -18.2%
CCOC(=O)c1c(SCC(=O)Nc2cccc(C)c2C)nc(=O)[nH]c1C -12.2%
Cc1c(Cl)cccc1NC(=O)Cn1c(=O)n(Cc2ccco2)c(=O)c2oc3ccccc3c21 -3.82%

Source: PubChem BioAssay AID1508624 (National Center for Advancing Translational Sciences (NCATS), 2021)
